Hit rate of the full screen: of about 310,000 compounds, about 14,000 (4.5%) showed an effect of 50% or more. Effects have a minus sign here. Some of the results follow.
target: human ether-à-go-go-related gene (hERG) potassium channel (human, UniProt Q12809); experiment: primary screen, population patch clamp on CHO cells stably expressing hERG
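Further: peak tail current of the secondary pulse compared with the same well before compound.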

human ether-à-go-go-related gene (hERG) potassium channel, sequence (Q12809 whole entry, looked up): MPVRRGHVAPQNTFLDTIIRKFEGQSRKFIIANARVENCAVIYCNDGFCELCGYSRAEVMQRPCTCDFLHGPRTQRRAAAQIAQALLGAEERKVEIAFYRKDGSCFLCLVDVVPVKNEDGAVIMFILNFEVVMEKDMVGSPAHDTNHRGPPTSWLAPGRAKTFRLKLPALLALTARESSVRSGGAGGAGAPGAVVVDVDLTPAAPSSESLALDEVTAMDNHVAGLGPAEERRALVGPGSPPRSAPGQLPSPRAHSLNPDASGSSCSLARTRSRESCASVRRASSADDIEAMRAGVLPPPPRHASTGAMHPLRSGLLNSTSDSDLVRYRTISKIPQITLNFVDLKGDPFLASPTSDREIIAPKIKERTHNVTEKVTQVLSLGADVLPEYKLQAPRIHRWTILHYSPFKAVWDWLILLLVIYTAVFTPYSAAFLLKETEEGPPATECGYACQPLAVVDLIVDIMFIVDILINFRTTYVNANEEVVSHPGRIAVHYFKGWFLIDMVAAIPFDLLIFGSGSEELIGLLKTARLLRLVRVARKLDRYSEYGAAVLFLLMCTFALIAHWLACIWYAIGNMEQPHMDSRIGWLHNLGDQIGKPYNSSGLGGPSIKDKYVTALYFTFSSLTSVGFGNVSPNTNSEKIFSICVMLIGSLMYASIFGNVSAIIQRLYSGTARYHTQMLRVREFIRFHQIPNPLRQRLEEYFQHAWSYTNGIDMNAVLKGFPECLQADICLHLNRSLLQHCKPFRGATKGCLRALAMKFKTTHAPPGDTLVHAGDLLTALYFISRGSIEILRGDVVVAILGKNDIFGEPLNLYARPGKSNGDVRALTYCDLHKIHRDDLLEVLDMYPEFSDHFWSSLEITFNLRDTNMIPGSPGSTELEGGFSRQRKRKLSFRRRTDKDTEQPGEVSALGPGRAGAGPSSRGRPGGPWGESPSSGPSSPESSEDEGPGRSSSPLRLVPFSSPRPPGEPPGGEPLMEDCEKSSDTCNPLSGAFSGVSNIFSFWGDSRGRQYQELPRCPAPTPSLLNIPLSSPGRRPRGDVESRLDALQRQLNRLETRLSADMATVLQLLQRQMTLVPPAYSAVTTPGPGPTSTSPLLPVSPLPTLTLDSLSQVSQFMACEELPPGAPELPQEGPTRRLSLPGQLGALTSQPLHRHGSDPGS

Structure (SMILES)	hERG current change (%, negative = inhibition) at 10uM [%]
O=C(/C=C/c1ccccc1Cl)NNC(=O)c1cccs1	40.6
COc1ccc(C2NC(c3ccc(OC)cc3)C([N+](=O)[O-])C(C)(C)C2[N+](=O)[O-])cc1 (stereo not shown)	41.2
O=C(c1cccc(N2C(=O)C3CC=CCC3C2=O)c1)N1CCCc2ccccc21 (stereo not shown)	-19.2
C/C(=N\NC(=O)CSCc1ccccc1Br)c1cccc([N+](=O)[O-])c1	15.5
Cn1c(N)c(C(=O)COC(=O)c2ccc(S(=O)(=O)N3CCCCC3)cc2)c(=O)n(C)c1=O	29.5
COc1ccnc(Nc2ccc(C)c(C)c2)c1C#N	-10.3
CCn1nc(NS(=O)(=O)c2ccc([N+](=O)[O-])cc2)c2cc3ccccc3nc21	19.3
COC(=O)c1cc(NC(=O)c2cc(-c3ccc(C(F)(F)F)cc3)oc2C(F)(F)F)ccc1N1CCOCC1	7.53
COc1ccc2occ(C(C)=O)c2c1	1.12
Cc1ccc(C(=O)NNC(=O)c2ccccc2O)cc1S(=O)(=O)N1CCCCC1	5.69
O=C(Cc1ccc(Cl)cc1)Nc1cccc(S(=O)(=O)N2CCCCC2)c1	-19.9
Cc1cc(S(=O)(=O)NC(C)C)ccc1OCC(=O)Nc1ccc2c(c1)OCCO2	15.1
COCc1ccc(O)c2ncccc12	-11.2
Cn1c(SCc2ccccn2)nc2c1c(=O)[nH]c(=O)n2C	18.8
COc1ccccc1N(C)S(=O)(=O)c1ccc(Cl)c(C(=O)NCc2cccnc2)c1	-14.9
CNC(=S)NNC(=O)c1ccccc1Cl	8.64
CCn1c(=O)cc(SCC(=O)NCc2ccccn2)c2ccccc21	-0.329
O=C(O)c1ccc(-c2noc(-c3ccccc3F)n2)cc1	21.6
CC(=O)c1ccc(OCC(O)CN2CCN(S(=O)(=O)c3c(C)cc(C)cc3C)CC2)cc1.O=C(O)C(=O)O (stereo not shown)	-14.6
O=C(O/N=C/c1ccc2c(c1)OCO2)c1ccc([N+](=O)[O-])cc1	22.3
CC1CN(C(=O)COC(=O)Cc2ccc(Cl)cc2)CC(C)O1 (stereo not shown)	-2.2
Cc1ccc(CSc2nnc(-c3cccnc3)o2)cc1	-10.1
O=C(c1nc2ccc(Cl)cn2c1CN1CCC(O)CC1)N1CCc2ccccc2C1	7.94
O=c1cc(C(F)(F)F)nc(-c2cccnc2)[nH]1	17.2
Cc1cccc(C)c1NC(=O)C(c1ccc([N+](=O)[O-])cc1)N1CCCCC1 (stereo not shown)	0.685
COc1ccccc1S(=O)(=O)n1cc(Cc2ccccc2)c(N)n1	-8.6
COc1cccc(-c2nc3sc4c(c3c(=O)[nH]2)CCCCC4)c1	14.8
CCCCn1c(N)c(N(CCC(C)C)C(=O)c2oc3ccc(OCC)cc3c2C)c(=O)[nH]c1=O	-13.9

Structure (SMILES)	hERG current change (%, negative = inhibition) at 10uM [%]
CC1(OC(=O)C2CCCC2)C(=O)C=C2C=C(c3ccsc3)N(C(CO)CO)C=C2C1=O (stereo not shown)	-20.1
O=C(NC1CC1)c1ccc(S(=O)(=O)NC2CCCCCC2)cc1	-8.91
CC(C)[C@H](NS(=O)(=O)c1ccc2c(c1)OCCO2)C(=O)OCC(=O)Nc1ccccc1Cl	-2.82
CSc1cccc(NC(=S)N(C(C)C)C(C)c2ccccn2)c1 (stereo not shown)	-23.4
COc1cccc(C(=O)Nc2nnc(C3CCCO3)s2)c1 (stereo not shown)	-2.53
O=C(Nc1ccc(Cn2cccn2)cc1)c1ccc(COc2ccccc2Br)cc1	10.4
COc1ccc(/C=C2/C(=O)ON=C2C)cc1Cl	32.3
COc1cccc([C@@H]2Oc3ccc(Br)cc3C(=O)[C@H]2OC(=O)NC2CCCC2)c1	7.49
CC(C)CCNC(=O)c1ccc2c(c1)ncn2C1CCCC1	-54.8
Cc1ccc(-c2cnc(NCc3cc4c(cc3[N+](=O)[O-])OCO4)n2C)cc1C	-48.6
CCOc1ccc(C(=O)Nn2cnnc2)cc1OCC	-70.4
COc1ccc(OC)c(-n2c(-c3ccc(O)cc3O)n[nH]c2=S)c1	17.6
CCOc1cc(-c2noc(CCCC(N)=O)n2)cc(Br)c1OC	2.99
COc1ccc(C(=O)O)cc1S(=O)(=O)Nc1ccccc1C(=O)NCc1ccc2c(c1)OCO2	13.8
Cc1ccc(NC(=O)c2ccc(CN3CCc4ccccc4C3)cc2)cc1	2.91
Cc1ccc(CCC(=O)Nc2ncc(Cc3cc(Cl)ccc3Cl)s2)o1	27.7
CCCS(=O)(=O)N1CCC(C(=O)NCC2CCCO2)CC1 (stereo not shown)	1.15
COc1ccc(CCNC(=O)C2CCN(C(=O)c3cccc(Cl)c3)CC2)cc1OC	11.5
Cc1ccccc1OCC(=O)Nc1cccc(NC(=O)c2ccco2)c1	-32
CC(=O)NC(Cc1c[nH]c2ccccc12)C(=O)N1CCN(S(=O)(=O)c2ccccc2)CC1 (stereo not shown)	9.01
CCCCCCCCCCCC(=O)N1CC(=O)NC(=O)C1	7.19
Cc1ccc2c(c1)C(=O)C(=O)N2CC1COc2ccccc2O1 (stereo not shown)	12.1
CN(CC(=O)Nc1ccccc1Cl)C(=O)COC(=O)CSc1ccc(F)cc1	-45.2
CC(C)(C)NC(=O)c1cc(C(C)(C)C)c(O)c(C(C)(C)C)c1	4.79
Cc1nc(C2COc3ccccc3O2)sc1C(=O)O (stereo not shown)	13.8
CC(C)Oc1ccc(S(=O)(=O)N2CCOCC2)cc1NC(=O)CC1OC(=O)c2ccccc21 (stereo not shown)	-25
CCOC(=O)C1CCN(Cc2cn[nH]c2-c2ccc(C)cc2)CC1	-51.8
